{"source": "PubChem BioAssay AID2147", "about": "(National Center for Advancing Translational Sciences (NCATS), 2009)", "note": "In all, about 230,000 compounds went through this assay and about 3,600 (1.6%) were called active. Inconclusive means that the source gave no clear call. Such entries were picked first, then a sample of the others. The call rests on the fitted dose curve; in most records, active means well fitted inhibition curve with a large enough effect (not every such curve was filed as active); inconclusive means small, poorly fitted or top-dose-only effect, or another doubt; inactive means no such curve, though single readings can be large or run the other way. A potency beside an inconclusive call is a rough fit, not a confirmed value. Further: nearly all actives have a fitted effect of over 50% in size. Potency means the concentration at half of the fitted maximal effect; tags describe the fitted curve by direction and shape.", "data": [{"target": "Lysine-specific demethylase 4E (Homo sapiens) (UniProt B2RXH2)", "sequence (B2RXH2 whole entry, looked up, the tested form may be a part)": "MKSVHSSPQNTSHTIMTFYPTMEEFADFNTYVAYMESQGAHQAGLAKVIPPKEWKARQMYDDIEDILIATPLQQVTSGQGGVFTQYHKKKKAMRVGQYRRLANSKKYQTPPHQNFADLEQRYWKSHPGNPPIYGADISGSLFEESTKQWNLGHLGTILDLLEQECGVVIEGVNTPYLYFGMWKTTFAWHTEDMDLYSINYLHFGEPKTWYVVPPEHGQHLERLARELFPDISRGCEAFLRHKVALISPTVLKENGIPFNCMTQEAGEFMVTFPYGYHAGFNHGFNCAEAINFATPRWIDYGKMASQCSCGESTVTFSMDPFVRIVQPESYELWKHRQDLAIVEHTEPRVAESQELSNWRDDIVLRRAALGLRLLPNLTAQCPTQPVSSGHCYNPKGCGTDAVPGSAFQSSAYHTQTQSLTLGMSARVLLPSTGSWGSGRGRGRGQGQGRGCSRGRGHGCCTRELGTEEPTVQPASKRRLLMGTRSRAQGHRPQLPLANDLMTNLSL", "test": "qHTS Assay for Inhibitors of Human Jumonji Domain Containing 2E (JMJD2E)", "details": "JMJD2E catalytic domain, FDH-coupled NADH fluorescence (FDH is formaldehyde dehydrogenase); series mostly up to 57.1 µM", "values": [{"smiles": "COc1ccc(CN2CCN(c3ccccc3F)CC2)c(OC)c1", "Potency": "inconclusive: 25.1 µM [inhibitor, single point]"}, {"smiles": "CN1C(=O)NC(=O)/C(=C/c2ccc([N+](=O)[O-])o2)C1=O", "Potency": "inconclusive: 28.2 µM [inhibitor, single point]"}, {"smiles": "CCOc1ccc(Cn2c(=O)oc3ccc(C)cc32)cc1OC", "Potency": "inconclusive: 39.8 µM [inhibitor, single point]"}, {"smiles": "NC(=S)N/N=C/c1coc2ccccc2c1=O", "Potency": "inactive"}, {"smiles": "CC1(C)N(O)C2CCCCC2N1O", "note": "(stereo unspecified)", "Potency": "inconclusive: 39.8 µM [inhibitor, single point]"}, {"smiles": "COc1ccc(CCN(C)Cc2ccc(F)cc2F)cc1OC", "Potency": "inconclusive: 28.2 µM [inhibitor, single point]"}, {"smiles": "COc1ccccc1N1CCN(Cc2ccc(Br)s2)CC1", "Potency": "inconclusive: 39.8 µM [inhibitor, single point]"}, {"smiles": "Cn1c2ccccc2c2cnn(CC(=O)N3CCC4(CC3)OCCO4)c(=O)c21", "Potency": "inconclusive: 22.4 µM [inhibitor, partial curve]"}, {"smiles": "O=C(COc1ccc(Br)cc1)N1CCN(Cc2ccncc2)CC1", "Potency": "inconclusive: 28.2 µM [inhibitor, partial curve]"}, {"smiles": "Cc1[nH]c2ccccc2c1C(=O)CN1CC=C(c2ccccc2)CC1", "Potency": "inconclusive: 39.8 µM [inhibitor, single point]"}, {"smiles": "CC(C)NC(C)C(=O)c1ccc2ccccc2c1", "note": "(stereo unspecified)", "Potency": "inconclusive: 25.1 µM [inhibitor, partial curve]"}, {"smiles": "Cc1ccc2c(c1)C1CN(C)CCC1N2C(=O)c1ccc(Br)o1", "note": "(stereo unspecified)", "Potency": "inactive"}, {"smiles": "CCOC(=O)c1c(C)n(Cc2ccc(F)cc2)c2ccc(O)cc12", "Potency": "inconclusive: 25.1 µM [inhibitor, single point]"}, {"smiles": "Cc1ccc2c(c1)C1CN(C)CCC1N2C(=O)/C(C#N)=C/c1ccc2c(c1)OCO2", "note": "(stereo unspecified)", "Potency": "inconclusive: 22.4 µM [inhibitor, single point]"}, {"smiles": "Cn1c[n+](C)cc1C(O)c1ccccc1", "note": "(stereo unspecified)", "Potency": "inconclusive: 39.8 µM [inhibitor, single point]"}, {"smiles": "Nc1nc2ccc(Cl)cc2c2nc(-c3ccco3)nn12", "Potency": "inconclusive: 15.8 µM [inhibitor, partial curve, poor fit]"}, {"smiles": "COc1ccc(OCC(=O)N2CCN(C(C)C)CC2)cc1", "Potency": "inconclusive: 28.2 µM [inhibitor, single point]"}, {"smiles": "O=C1NC(=O)C(=Cc2ccc3ccccc3c2)C(=O)N1", "Potency": "inconclusive: 31.6 µM [inhibitor, partial curve]"}, {"smiles": "CC1(C)C(O)CC(O)[C@]2(C)C1CC(O)[C@]1(C)C2CC[C@@]2(C)C(c3ccoc3)OC(=O)C3O[C@]312", "note": "(stereo partly specified)", "Potency": "inactive"}, {"smiles": "CCCCOP(=O)(c1ccc(N(C)C)cc1)C(Nc1ccccc1)c1ccccc1", "note": "(stereo unspecified)", "Potency": "inconclusive: 39.8 µM [inhibitor, single point]"}, {"smiles": "N/C(=N\\N=C\\c1ccc(O)cc1O)N[N+](=O)[O-]", "Potency": "active: 25.1 µM"}, {"smiles": "COc1ccc2c(c1)CC1(CN2C)C(=O)NC(=O)N(c2ccc(F)cc2)C1=O", "note": "(stereo unspecified)", "Potency": "inconclusive: 39.8 µM [inhibitor, single point]"}, {"smiles": "CN(C)c1ccc(/C=C2/C(=O)NC(=O)N(Cc3ccco3)C2=O)cc1", "Potency": "inactive"}, {"smiles": "CN1C[C@H](CO)C=C2c3cccc4[nH]cc(c34)C[C@@H]21", "Potency": "inconclusive: 14.1 µM [inhibitor, partial curve]"}, {"smiles": "O=c1[nH]c(=O)n(Cc2ccccc2)c(O)c1/C=N/Nc1c(F)c(F)c(F)c(F)c1F", "Potency": "inactive"}, {"smiles": "N[C@@H](Cc1cc(Br)c(O)c(Br)c1)C(=O)O", "Potency": "inactive"}, {"smiles": "Cc1ccc(C[N+](C)(C)C)o1", "Potency": "inactive"}, {"smiles": "CN(C)CCN(Cc1ccccc1)c1ccnc(N(C)C)c1C#N", "Potency": "inconclusive: 28.2 µM [inhibitor, partial curve]"}, {"smiles": "CCCCn1c(=O)c(C=Nc2cccnc2Cl)c(O)n(CCCCl)c1=O", "Potency": "inconclusive: 39.8 µM [inhibitor, single point]"}, {"smiles": "Clc1ccccc1CN1CCN(c2ccccc2)CC1", "Potency": "inconclusive: 39.8 µM [inhibitor, single point]"}, {"smiles": "Cc1ccc(-c2nn3c(C)nnc3c3ccccc23)cc1S(=O)(=O)NCCO", "Potency": "inconclusive: 28.2 µM [inhibitor, single point]"}, {"smiles": "Cn1c(O)c(/C=C2\\N=c3ccccc3=C2CCNC(=S)NC2CC2)c(=O)n(C)c1=O", "Potency": "inconclusive: 25.1 µM [inhibitor, partial curve]"}, {"smiles": "Clc1ccc(-c2nc3ccc(Cl)cn3c2CN2CCOCC2)cc1", "Potency": "inconclusive: 39.8 µM [inhibitor, single point]"}, {"smiles": "O=C(NC1C(=O)NNC1c1ccc(Cl)cc1)c1ccc(F)cc1", "note": "(stereo unspecified)", "Potency": "inconclusive: 15.8 µM [inhibitor, partial curve, poor fit]"}, {"smiles": "Cc1cc(C)cc(N2C(=O)NC(=O)/C(=C\\c3cccn3-c3ccc(Cl)cc3)C2=O)c1", "Potency": "inactive"}, {"smiles": "O=C1c2ccccc2NC(c2ccccc2O)N1NS(=O)(=O)c1ccccc1", "note": "(stereo unspecified)", "Potency": "inconclusive: 25.1 µM [inhibitor, partial curve]"}, {"smiles": "CC(C)CCNC(=O)c1c(N)n(CC2CCCO2)c2nc3ccccc3nc12", "note": "(stereo unspecified)", "Potency": "inconclusive: 28.2 µM [inhibitor, partial curve]"}, {"smiles": "Cc1oc(/N=C/c2ccc3c(c2)OCO3)c(C#N)c1C", "Potency": "inconclusive: 39.8 µM [inhibitor, single point]"}, {"smiles": "CC(C)N1C(=O)CC2(CC[N+](C)(CCOC(=O)C(O)(c3ccccc3)c3ccccc3)CC2)C1=O", "note": "(stereo unspecified)", "Potency": "inconclusive: 39.8 µM [inhibitor, single point]"}, {"smiles": "COc1ccc(Cn2c(N)c(C(=O)NCc3ccco3)c3nc4ccccc4nc32)cc1", "Potency": "inconclusive: 31.6 µM [inhibitor, partial curve]"}, {"smiles": "CCn1c(O)c(N=Nc2ccc(S(=O)(=O)N3CCOCC3)cc2)c(=O)n(CC)c1=S", "Potency": "inactive"}, {"smiles": "Nc1c(C(=O)NCCCc2ccccc2)c2nc3ccccc3nc2n1Cc1cccs1", "Potency": "inconclusive: 20 µM [inhibitor, partial curve]"}, {"smiles": "Cc1nnc2ccc(N3CCN(C)CC3)nn12", "Potency": "inconclusive: 35.5 µM [inhibitor, single point]"}, {"smiles": "Cn1c(O)c(/C=N/c2ccccn2)c(=O)n(C)c1=O", "Potency": "inconclusive: 35.5 µM [inhibitor, single point]"}, {"smiles": "NCC(O)c1cc(O)c(O)cc1F", "note": "(stereo unspecified)", "Potency": "active: 14.1 µM"}, {"smiles": "COP(=O)(CC(=O)O)c1ccccc1", "note": "(stereo unspecified)", "Potency": "inactive"}, {"smiles": "CCN(CC)c1ccc(NC(=O)c2cccc(C)c2)cc1S(=O)(=O)Nc1ccccc1OC", "Potency": "inconclusive: 39.8 µM [inhibitor, single point]"}, {"smiles": "COC(=O)[C@]1(C)CC[C@@]2(C)CC[C@@]3(C)C4=CCc5c(cc(O)c(O)c5C)[C@]4(C)CC[C@@]3(C)C2C1", "note": "(stereo partly specified)", "Potency": "inactive"}, {"smiles": "CC[C@@H](CO)NC(=O)[C@H]1C=C2c3cccc4[nH]cc(c34)C[C@H]2N(C)C1", "Potency": "inconclusive: 31.6 µM [inhibitor, partial curve]"}, {"smiles": "C=CCN1CCc2cccc3c2C1Cc1ccc(O)c(O)c1-3", "note": "(stereo unspecified)", "Potency": "inconclusive: 22.4 µM [inhibitor, partial curve]"}, {"smiles": "C=CCn1c(O)c(C(C)=Nc2cccc(C(=O)O)c2)c(=O)[nH]c1=O", "Potency": "inconclusive: 28.2 µM [inhibitor, partial curve]"}, {"smiles": "COc1cc(Cn2c(N)c(C(=O)NCc3ccco3)c3nc4ccccc4nc32)cc(OC)c1OC", "Potency": "inconclusive: 22.4 µM [inhibitor, partial curve]"}, {"smiles": "CCC(C)n1c(O)c(C(c2ccccn2)c2c(O)n(C(C)CC)c(=S)[nH]c2=O)c(=O)[nH]c1=S", "note": "(stereo unspecified)", "Potency": "inconclusive: 35.5 µM [inhibitor, single point]"}, {"smiles": "CN1C(=O)C(=Cc2cccnc2)C(=O)N(C)C1=O", "Potency": "inconclusive: 39.8 µM [inhibitor, single point]"}, {"smiles": "COc1ccc(C(=O)N2CCCC2=O)cc1", "Potency": "inconclusive: 39.8 µM [inhibitor, single point]"}, {"smiles": "O=C1NC(=O)C(=Cc2ccc(-c3ccccc3[N+](=O)[O-])o2)C(=O)N1", "Potency": "active: 20 µM"}, {"smiles": "CC(C)(C)OC(=O)c1c(N)n(Cc2ccco2)c2nc3ccccc3nc12", "Potency": "inconclusive: 28.2 µM [inhibitor, partial curve]"}, {"smiles": "CCOP(=S)(OCC)Oc1cc(C)oc(=O)c1Cl", "Potency": "inconclusive: 25.1 µM [inhibitor, single point]"}, {"smiles": "COc1ccc(N2C(=O)NC(=O)/C(=C\\c3ccccc3[N+](=O)[O-])C2=O)cc1", "Potency": "inconclusive: 39.8 µM [inhibitor, single point]"}, {"smiles": "CCCCn1c(O)c(C(CC)=NCCN2CCCCC2)c(=O)[nH]c1=O", "Potency": "inconclusive: 28.2 µM [inhibitor, single point]"}, {"smiles": "NS(=O)(=O)c1ccc(N=Cc2c(O)n(C3CCCCC3)c(=O)n(C3CCCCC3)c2=O)cc1", "Potency": "inconclusive: 39.8 µM [inhibitor, single point]"}, {"smiles": "N#CC1=C(N)Oc2n[nH]c(-c3cccs3)c2C1c1ccsc1", "note": "(stereo unspecified)", "Potency": "inconclusive: 2 µM [inhibitor, full curve, poor fit]"}, {"smiles": "Cl.Cl.Cl.Cl.Cl.Cl.N.N.N.N.NNNNN.NNNNN.O.O.[Ru].[Ru].[Ru]", "Potency": "active: 31.6 µM"}, {"smiles": "CCN1C(=O)/C(=C/c2ccc(N(CC)CC)cc2OC)C(=O)NC1=S", "Potency": "inconclusive: 39.8 µM [inhibitor, single point]"}, {"smiles": "CCCCC(=O)N/N=C/c1c(O)n(CC)c(=S)[nH]c1=O", "Potency": "inconclusive: 39.8 µM [inhibitor, single point]"}, {"smiles": "COc1ccc(C2=CC(c3ccc(OC)c(OC)c3)c3c(c4ccccc4oc3=O)O2)cc1OC", "note": "(stereo unspecified)", "Potency": "inconclusive: 39.8 µM [inhibitor, single point]"}]}]}
